The values that follow come from patent US20210269542A1 (POTENZA THERAPEUTICS, published 2021).

Test [1] has as its target T1, human GITR-Fc (human, UniProt Q9Y5U5 26-162).
T1 construct: also called recombinant hGITR; wild type human GITR-Fc
T1 sequence: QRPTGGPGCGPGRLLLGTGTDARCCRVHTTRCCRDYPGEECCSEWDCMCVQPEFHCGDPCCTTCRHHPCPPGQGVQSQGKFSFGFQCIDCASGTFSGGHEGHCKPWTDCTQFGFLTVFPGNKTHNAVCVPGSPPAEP
Put plainly: BLI Octet, ABP on AHC sensor, 25 nM antigen, single concentration.

Test [2] addresses T2, human GITR T43R-Fc (human, UniProt Q9Y5U5 26-162).
T2 construct: also called hGITR-T43R; Human GITR-Fc T43R
T2 chain: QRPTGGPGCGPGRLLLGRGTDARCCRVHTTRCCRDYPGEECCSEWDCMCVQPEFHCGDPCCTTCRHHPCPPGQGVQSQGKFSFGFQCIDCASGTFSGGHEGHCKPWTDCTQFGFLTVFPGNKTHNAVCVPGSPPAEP
Described as above.

Test [3] concerns the target T3, mouse GITR-Fc (mouse, UniProt O35714 20-153).
T3 construct: also called mGITR
T3 sequence: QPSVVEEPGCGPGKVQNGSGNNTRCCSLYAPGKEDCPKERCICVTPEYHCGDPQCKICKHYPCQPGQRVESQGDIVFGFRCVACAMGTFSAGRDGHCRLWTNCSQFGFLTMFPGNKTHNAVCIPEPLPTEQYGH
The description is as above.

Test [4] deals with T4, cyno GITR-Fc (cynomolgus monkey).
T4 construct: also called cGITR; cynomolgus GITR
T4 chain: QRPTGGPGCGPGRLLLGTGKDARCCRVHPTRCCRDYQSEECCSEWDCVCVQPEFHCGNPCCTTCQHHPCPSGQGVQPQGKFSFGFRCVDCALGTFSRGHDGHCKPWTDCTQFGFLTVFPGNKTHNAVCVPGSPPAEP
Described as above.

The target of test [5] is T5, human GITR expressed on cells (human, UniProt Q9Y5U5 26-241).
T5 sequence: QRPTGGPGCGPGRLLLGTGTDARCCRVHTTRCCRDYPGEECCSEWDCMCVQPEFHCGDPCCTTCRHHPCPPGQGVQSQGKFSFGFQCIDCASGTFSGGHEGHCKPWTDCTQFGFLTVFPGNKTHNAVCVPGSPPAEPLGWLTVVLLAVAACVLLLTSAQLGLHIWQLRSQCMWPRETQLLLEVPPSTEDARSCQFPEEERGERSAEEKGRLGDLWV
Put plainly: cell-based or functional assay.

The target in test [6] is T6, cynomolgus monkey GITR expressed on HT1080 cells (cynomolgus monkey).
T6 chain: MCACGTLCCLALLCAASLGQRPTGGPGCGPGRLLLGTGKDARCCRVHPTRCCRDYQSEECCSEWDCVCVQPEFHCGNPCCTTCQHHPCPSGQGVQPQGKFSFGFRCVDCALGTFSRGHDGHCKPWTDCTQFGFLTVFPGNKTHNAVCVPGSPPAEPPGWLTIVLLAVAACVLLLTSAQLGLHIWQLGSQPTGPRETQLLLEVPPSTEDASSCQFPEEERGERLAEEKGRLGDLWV
Put plainly: cell-based or functional assay.

For test [7], the target named is T5, human GITR expressed on cells. Put plainly: cell-based or functional assay. The source holds these as a separate data set.
The target of test [8] is T1, human GITR-Fc. Put plainly: BLI Octet, ABP on AHC sensor, antigen 50-0.78 nM, multi-concentration, n = 3.
Test [9] concerns the target T4, cyno GITR-Fc. The description is as above.
Test [10] deals with T2, human GITR T43R-Fc. Put plainly: BLI Octet, ABP on AHC sensor, antigen 50-0.78 nM, multi-concentration, n = 1. On the technique in general: In BLI a coated tip is dipped into the sample, and binding shifts an interference pattern.

B1: ABP2 (antibody, human IgG4 S228P, kappa)
heavy: QVQLQESGPGLVKPSQTLSLTCTVSGGSISSGGAVWSWIRQHPGKGLEWIGGIAYSGSTYYNPSLKSRVTISVDTSKNQFSLKLSSVTAADTAVYYCADENVRGYGDYGGHHAFDIWGQGTMVTVSSASTKGPSVFPLAPSSKSTSGGTAALGCLVKDYFPEPVTVSWNSGALTSGVHTFPAVLQSSGLYSLSSVVTVPSSSLGTQTYICNVNHKPSNTKVDKRVEPKSCGGGGSQVQLQESGPGLVKPSQTLSLTCTVSGGSISSGGAVWSWIRQHPGKGLEWIGGIAYSGSTYYNPSLKSRVTISVDTSKNQFSLKLSSVTAADTAVYYCADENVRGYGDYGGHHAFDIWGQGTMVTVSSASTKGPSVFPLAPCSRSTSESTAALGCLVKDYFPEPVTVSWNSGALTSGVHTFPAVLQSSGLYSLSSVVTVPSSSLGTKTYTCNVDHKPSNTKVDKRV[human IgG4 Fc with S228P (EU numbers) left out]
light: [about 100 residues left out][about 100 residues left out]
notes: TM format, N-terminal Fab: VH + IgG1 CH1 + GGGGS + VH + IgG4 S228P; heavy chain with or without C-terminal Lys
As usually defined, the Kd is a measure of binding affinity in units of concentration. Regarding B1, the dissociation constant (Kd) in test [1] was found to be 0.55 nM; in [2] it was 0.73 nM; in test [4] it was 0.79 nM; in [8], 0.23 nM; in test [9], 0.71 nM; in [10], 0.1 nM. In [3], the binding result is “no binding (tested: 25 nM)”. Moreover, the “% Activity Compared to GITRL, Jurkat cells expressing human GITR” value (from here on “% Activity Compared to GITRL”) in test [5] came to 114%. Besides, in [5], the “EC50, Jurkat cells expressing human GITR” value was 0.21 nM. Also, the “% Maximum IL-8 Induction Relative to GITRL in cynomolgus HT1080” value in test [6] was found to be 80%. For the same molecule, the “Average EC50 in cynomolgus HT1080 (IL-8 induction)” value (“Average EC50 in cynomolgus HT1080” below) in test [6] was 0.061 nM. Besides, the “% Maximum IL-8 Induction Relative to GITRL in human HT1080” value in test [7] came out at 97%. Besides, the “Average EC50 in Human HT1080 (IL-8 induction)” value (“Average EC50 in Human HT1080” for short) in [7] was 0.126 nM.

B2: ABP3 (antibody, human IgG4 S228P, kappa)
heavy: QVQLQESGPGLVKPSETLSLTCAVSGYSISSGAGWGWIRQPPGKGLEWIGLIVHSGSTYYNPSLKSRVTISVDTSKNQFSLKLSSVTAADTAVYYCVLESVRGYGDYGGHHAFDIWGQGTMVTVSSASTKGPSVFPLAPSSKSTSGGTAALGCLVKDYFPEPVTVSWNSGALTSGVHTFPAVLQSSGLYSLSSVVTVPSSSLGTQTYICNVNHKPSNTKVDKRVEPKSCGGGGSQVQLQESGPGLVKPSETLSLTCAVSGYSISSGAGWGWIRQPPGKGLEWIGLIVHSGSTYYNPSLKSRVTISVDTSKNQFSLKLSSVTAADTAVYYCVLESVRGYGDYGGHHAFDIWGQGTMVTVSSASTKGPSVFPLAPCSRSTSESTAALGCLVKDYFPEPVTVSWNSGALTSGVHTFPAVLQSSGLYSLSSVVTVPSSSLGTKTYTCNVDHKPSNTKVDKRV[human IgG4 Fc with S228P (EU numbers) left out]
light: DIQMTQSPSSLSASVGDRVTITCRASQSISSYLNWYQQKPGKAPKLLIYAASSLKYGVPSRFSGSGSGTDFTLTISSLQPEDFATYYCQQEYNTPPTFGGGTKVEIKRTVAAPSVFIFPPSDEQLKSGTASVVCLLNNFYPREAKVQWKVDNALQSGNSQESVTEQDSKDSTYSLSSTLTLSKADYEKHKVYACEVTHQGLSSPVTKSFNRGEC
notes: as for B1
As for B2, the Kd came out at 0.58 nM in test [1]; 0.71 nM in test [2]; 1.1 nM in test [4]; 0.12 nM in test [8]; 1.1 nM in test [9]; 0.0027 nM in test [10]. The binding result in test [3] is “no binding (tested: 25 nM)”. The “% Activity Compared to GITRL” value in test [5] was determined as 120%. The “EC50, Jurkat cells expressing human GITR” value in test [5] was 0.19 nM. In addition, the “% Maximum IL-8 Induction Relative to GITRL in cynomolgus HT1080” value in test [6] worked out at 92%. Moreover, the “Average EC50 in cynomolgus HT1080” value in test [6] turned out to be 0.072 nM. Further, the “% Maximum IL-8 Induction Relative to GITRL in human HT1080” value in test [7] was 96%. For the same molecule, the “Average EC50 in Human HT1080” value in test [7] was 0.097 nM.

B3: ABP6 (antibody, human IgG4 S228P, kappa)
heavy: QVQLQESGPGLVKPSETLSLTCAVSGYSISSGAGWGWIRQPPGKGLEWIGLIVHSGSTYYNPSLKSRVTISVDTSKNQFSLKLSSVTAADTAVYYCVLESVRGYGDYGGHHAFDIWGQGTMVTVSSASTKGPSVFPLAPSSKSTSGGTAALGCLVKDYFPEPVTVSWNSGALTSGVHTFPAVLQSSGLYSLSSVVTVPSSSLGTQTYICNVNHKPSNTKVDKRVEPKSCGGGGSQVQLQESGPGLVKPSETLSLTCAVSGYSISSGAGWGWIRQPPGKGLEWIGLIVHSGSTYYNPSLKSRVTISVDTSKNQFSLKLSSVTAADTAVYYCVLESVRGYGDYGGHHAFDIWGQGTMVTVSSASTKGPSVFPLAPCSRSTSESTAALGCLVKDYFPEPVTVSWNSGALTSGVHTFPAVLQSSGLYSLSSVVTVPSSSLGTKTYTCNVDHKPSNTKVDKRV[human IgG4 Fc with S228P (EU numbers) left out]
light: DIQMTQSPSSLSASVGDRVTITCRASQSISSYLNWYQQKPGKAPKLLIYAADSLQSGVPSRFSGSGSGTDFTLTISSLQPEDFATYYCQQEYNTPPTFGGGTKVEIKRTVAAPSVFIFPPSDEQLKSGTASVVCLLNNFYPREAKVQWKVDNALQSGNSQESVTEQDSKDSTYSLSSTLTLSKADYEKHKVYACEVTHQGLSSPVTKSFNRGEC
notes: as for B1
As to B3, the Kd turned out to be 0.63 nM in test [1]; 0.71 nM in [2]; 1.09 nM in test [4]; 0.15 nM in test [8]; 1.6 nM in [9]; 0.035 nM in [10]. The binding result in test [3] is “no binding (tested: 25 nM)”. The “% Activity Compared to GITRL” value in test [5] stood at 121%. In addition, the “EC50, Jurkat cells expressing human GITR” value in test [5] worked out at 0.29 nM. Also, the “% Maximum IL-8 Induction Relative to GITRL in cynomolgus HT1080” value in [6] stood at 92%. The “Average EC50 in cynomolgus HT1080” value in test [6] worked out at 0.077 nM. The “% Maximum IL-8 Induction Relative to GITRL in human HT1080” value in [7] was 96%. Moreover, the “Average EC50 in Human HT1080” value in test [7] is 0.083 nM.

B4: ABP4 (antibody, human IgG4 S228P, kappa)
heavy: QVQLQESGPGLVKPSETLSLTCAVSGYSISSGAGWGWIRQPPGKGPEWIGLIVHSGSTYYNPSLKSRVTISVDTSKNQFSLKLSSVTAADTAVYYCVLESVRGYGDYGGHHAFDIWGQGTMVTVSSASTKGPSVFPLAPSSKSTSGGTAALGCLVKDYFPEPVTVSWNSGALTSGVHTFPAVLQSSGLYSLSSVVTVPSSSLGTQTYICNVNHKPSNTKVDKRVEPKSCGGGGSQVQLQESGPGLVKPSETLSLTCAVSGYSISSGAGWGWIRQPPGKGPEWIGLIVHSGSTYYNPSLKSRVTISVDTSKNQFSLKLSSVTAADTAVYYCVLESVRGYGDYGGHHAFDIWGQGTMVTVSSASTKGPSVFPLAPCSRSTSESTAALGCLVKDYFPEPVTVSWNSGALTSGVHTFPAVLQSSGLYSLSSVVTVPSSSLGTKTYTCNVDHKPSNTKVDKRV[human IgG4 Fc with S228P (EU numbers) left out]
light: DIQMTQSPSSLSASVGDRVTITCRASKSIDSYLNWYQQKPGKAPKLLIYAASSLQSGVPSRFSGSGSGTDFTLTISSLQPEDFATYYCQQEYNTPPTFGGGTKVEIKRTVAAPSVFIFPPSDEQLKSGTASVVCLLNNFYPREAKVQWKVDNALQSGNSQESVTEQDSKDSTYSLSSTLTLSKADYEKHKVYACEVTHQGLSSPVTKSFNRGEC
notes: as for B1
As for B4, the dissociation constant Kd in test [1] was determined as 0.5 nM; in test [2] it was 0.72 nM; in test [4] it was 1.19 nM; in test [8], 0.11 nM; in test [9] it was 1.5 nM; in [10] it was 0.0045 nM. Also, in test [3], the binding result is “no binding (tested: 25 nM)”. Besides, the “% Activity Compared to GITRL” value in test [5] was determined as 117%. In addition, the “EC50, Jurkat cells expressing human GITR” value in test [5] came to 0.22 nM. In test [6], the “% Maximum IL-8 Induction Relative to GITRL in cynomolgus HT1080” value was 102%. Besides, in test [6], the “Average EC50 in cynomolgus HT1080” value amounted to 0.044 nM. In addition, the “% Maximum IL-8 Induction Relative to GITRL in human HT1080” value in test [7] was found to be 85%. Besides, the “Average EC50 in Human HT1080” value in test [7] came to 0.092 nM.
